Assay results as given in the supplement of paper PMC10126150.
Sequences with one replicate were seen in a single cluster, so their values are uncertain.

Tested on: ATP
Assay: switch fluorescence ratio, 500 uM ATP over buffer (Cy3 cluster intensity, sum of 5 cycles each) (fold (ratio)); higher = stronger signal-on switching upon ATP binding; sequences stand for … in TCGTCGGCAGCGTCAGATGTGTATAAGAGACAGTTTTTTTTTTTTTTTTTTTTTTTTT…TC
Details: aptamer strand: ATP DNA aptamer (quencher-CACCTGGGGGAGTATTGCGGAGGAAGG + anchor), 100 nM annealed; ATP concentration: 500 uM; one replicate
Method in brief: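 Five buffer/ATP imaging cycles were run on Cy3-labelled switching-strand clusters on a modified Illumina MiSeq flow-cell, with NaOH stripping and re-annealing between cycles. In each cycle, clusters annealed to 100 nM quencher-labelled ATP aptamer were imaged in selection buffer, then after 15 min with 500 uM ATP at 22 °C. Per cluster, the fluorescence ratio is summed target-cycle over summed buffer-cycle Cy3 intensity, averaged per switch-domain sequence. Only clusters within 100-1000 RFU were kept.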
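Also: ATP exposure 15 min at 22 °C before imaging.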

Sequence | switch fluorescence ratio
TCGTGTTAAC | 1.02
ATCTTGTTAG | 0.936
CAACTTAACG | 1.06
TGTGTGCAGT | 0.976
AGGTAGGTAC | 0.982
TTGAGTAGA | 0.975
AAATCTATTG | 1.01
AAAAGGCGT | 1.01
TTTCGGAAGA | 1.01
AAAGTCGGCT | 1.07
CAATGAATCA | 1.02
TTCTAATAGC | 1.05
GGAAATTCCG | 0.992
TCTCCTAACT | 1.08
GACGGAGCCT | 2.1
GGCACTGGGT | 0.991
GCATTGATAA | 1.02
CGATCATATG | 0.986
ACGTACCGCA | 1.56
CCCCTAACGC | 1.2
CTCTGTGGCT | 1
TTCGGAAATC | 1.9
GTCGTCGTGC | 1.05
ACAATATGCG | 1.01

Sequence | switch fluorescence ratio
GTCGTTATCT | 0.964
TGGTAATCTG | 0.958
ATCATCATG | 0.957
GAGGCTGAG | 0.927
CGAAATGAGG | 1.02
GAATATAAGG | 1.02
TAGTAGACTA | 1
GAGCCGGCCG | 1.01
CATGAGTTAT | 0.992
TTTTCGTCCG | 1.04
GGGTTTTTA | 1.04
AGAAGAGGTT | 0.988
GTTCTACTTC | 0.987
CCCCGGACAA | 3.21
TCAATTGGTA | 1.03
TACCTCCCTT | 0.97
TGCTGGACCT | 1.16
CAGGTCAATC | 1.2
CCACCCTGTG | 1.25
CCATGCGTGG | 1
AAACTCATGT | 1.07
CCTGGAACTG | 0.961
ACAGGATATA | 1.02
